# Assay results published in the supplement of paper PMC12217912.
# This is one part of the list. Sequences were assembled here from the parent chain. Inactive controls read about 0.05.
# B1: TEV protease; numbered along this chain (parent)
# chain: MGESLFKGPRDYNPISSSICHLTNESDGHTTSLYGIGFGPFIITNKHLFRRNNGTLVVQSLHGVFKVKDTTTLQQHLVDGRDMIIIRMPKDFPPFPQKLKFREPQREERICLVTTNFQTKSMSSMVSDTSCTFPSGDGIFWKHWIQTKDGQCGSPLVSTRDGFIVGIHSASNFTNTNNYFTSVPKNFMELLTNQEAQQWVSGWRLNADSVLWGGHKVFMVKPEEPFQPVKEATQL
# Variants of: B1
# Assay: raw area under fraction-flipped curve 0-4 h after induction (AUC4h, not background-subtracted), DNA-recorder readout of cleavage of the substrate (dimensionless); higher = more cleavage of the substrate by the protease variant
# Settings: temperature: 34 °C; time window: 0-4 h after rhamnose induction
# Procedure: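 In vivo DNA recorder in E. coli TOP10(DE3) ΔrhaA at 34 °C. Each TEVp single-site mutant (parent TEVp 0) is paired with a single-site variant of the 7-mer TEVs (canonical ENLYFQ|S). The substrate sits between flexible linkers in a Bxb1-sfGFP-TEVs-SsrA fusion, so cleavage stabilises Bxb1 and speeds flipping of a recombination array, read by NGS. The value is the raw area under the fraction-flipped curve over 0-4 h after rhamnose induction (AUC4h), with ≥20 reads per time point. It is not background-subtracted; inactive controls average about 0.047.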
# 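Note: Bxb1 expression induced with 0.2% (w/v) L-rhamnose at OD600 near 0.5, cultures sampled hourly, flipped fraction per protease–substrate barcode pair counted by paired-end Illumina sequencing.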
Variant,area with substrate ENAYFQS,area with substrate ENCYFQS,area with substrate ENDYFQS,area with substrate ENEYFQS,area with substrate ENGYFQS,area with substrate ENKYFQS,area with substrate ENPYFQS,area with substrate ENQYFQS,area with substrate ENSYFQS,area with substrate ENTYFQS,area with substrate ENYYFQS,area with substrate ENFYFQS,area with substrate ENHYFQS,area with substrate ENIYFQS,area with substrate ENMYFQS,area with substrate ENNYFQS,area with substrate ENRYFQS,area with substrate ENWYFQS,area with substrate ENVYFQS
D91A,0.0623,0.074,0.0619,0.0367,0.0489,0.0746,0.0655,0.0687,0.0121,0.0577,0.0394,–,–,–,–,–,–,–,–
D91H,0.0611,0.0704,0.0604,0.05,0.0628,–,0.0624,0.0588,0.0638,0.0598,–,0.0588,0.0762,0.157,0.0861,0.0677,0.0501,0.039,–
D91P,0.0507,0.0596,–,0.0491,–,0.0641,–,0.0437,0.0857,0.0641,–,0.0633,0.048,–,–,–,0.0508,–,–
P94G,0.0808,0.0644,0.0556,0.0606,0.0587,0.0544,0.0564,0.0684,0.0608,0.0626,–,0.0633,0.0556,0.171,0.119,0.0633,0.0637,–,0.0829
P94I,0.0333,0.0527,–,0.0368,0.0969,0.0594,0.0462,0.0616,0.0695,–,–,0.0778,–,–,–,0.0491,0.0706,0.0497,–
K98I,0.0737,0.0809,0.0643,0.0548,0.057,0.0612,0.0446,0.0582,0.0613,0.07,0.0556,0.0601,–,0.0906,0.0634,0.062,–,0.013,0.0743
K100E,0.0682,–,0.0737,0.0639,0.0614,0.0662,–,0.0368,0.017,0.0544,–,0.0638,0.0548,0.115,–,0.0594,0.0533,0.073,0.0653
K100L,0.0577,–,0.0559,0.0806,0.0528,–,0.0515,0.0526,–,0.0535,–,–,–,–,0.0717,0.0689,0.0499,–,–
K100R,0.0568,0.0793,0.0692,0.0858,0.0686,–,0.0622,0.0586,0.0507,0.0502,–,–,0.061,–,0.0606,–,0.055,0.0674,0.0792
K100V,0.0867,0.0632,0.0577,–,–,0.0632,–,0.0617,0.0731,0.0839,0.0527,0.0504,0.0393,–,–,0.0643,0.0516,–,0.0904
R102A,0.0492,0.056,0.0544,0.0536,0.0576,–,0.054,0.0467,0.0527,0.053,–,0.0533,0.055,–,0.0405,0.0511,0.0564,0.0575,0.0585
R102C,0.0489,–,0.049,0.0619,0.0608,0.0843,0.0482,0.0411,0.0524,0.0591,–,0.0511,0.048,0.0663,0.0545,0.061,–,0.0392,0.0571
R102T,0.0519,0.0885,–,–,0.0617,–,–,0.0414,0.0534,0.0445,–,–,0.0354,–,–,–,–,–,0.0494
E103C,0.0547,–,0.0644,0.072,0.0656,0.0596,–,0.0568,0.0659,0.076,0.066,0.0685,0.081,–,0.117,0.0598,–,0.0556,0.0886
E103L,0.0638,0.0692,0.0688,0.0849,–,–,0.0648,–,0.0728,0.0732,0.0566,–,0.0755,–,–,–,–,0.0569,0.0772
E103Q,0.0345,0.0834,0.0576,0.0591,0.0615,–,0.0642,0.0616,0.0662,0.0638,–,0.0436,0.0638,0.0887,0.0733,0.0698,–,–,0.0745
Q105C,0.103,0.0679,0.0656,0.0441,–,0.0622,–,0.0576,0.0517,0.0577,–,–,0.0535,0.0954,–,0.0643,–,0.0538,0.0862
Q105M,0.0664,0.0786,0.059,0.067,0.0483,0.0551,0.0548,0.0482,0.0576,0.0646,0.0897,–,0.0565,0.106,0.0892,0.0705,0.0411,0.0704,0.0886
R106F,0.0633,0.0506,0.0625,0.0707,–,–,0.0598,0.0584,0.0683,0.0675,–,0.0752,0.0673,0.134,0.0691,0.0502,0.0515,–,–
E107W,0.0651,–,0.0617,0.06,0.071,0.0776,0.0745,0.079,0.0545,0.0584,–,0.0589,–,0.111,–,0.0671,–,–,0.0551
E108T,0.0562,0.0696,0.061,0.056,–,0.064,0.0439,0.0485,0.0524,0.0603,–,0.0613,–,0.0818,–,0.0625,0.0686,0.0486,0.057
C111L,0.0529,0.0725,0.0633,0.0601,0.0528,–,0.0729,0.0526,0.0671,–,0.103,0.0659,–,0.124,0.0807,0.0585,–,–,–
C111T,0.0606,0.075,0.0653,0.0661,0.0507,0.0343,0.0557,0.08,0.0589,0.0763,0.0577,–,–,0.137,–,0.0683,–,0.0503,0.0893
C111Y,0.0777,0.0603,0.0558,–,0.0879,0.0704,0.0568,0.0666,0.0684,0.0628,–,0.0396,0.068,–,0.0929,0.0657,–,0.0684,0.0843
V113P,0.0641,0.0623,0.059,0.06,0.0504,0.0769,0.0536,0.0521,0.0654,0.0429,–,0.051,0.0616,–,0.0639,0.065,0.0532,–,0.0542
